From the supplement of paper PMC12217912
The list shows a part of the results. Sequences were assembled here from the parent chain. Values near 0.05 are background.

B1: TEV protease; numbered along this chain (parent)
chain: MGESLFKGPRDYNPISSSICHLTNESDGHTTSLYGIGFGPFIITNKHLFRRNNGTLVVQSLHGVFKVKDTTTLQQHLVDGRDMIIIRMPKDFPPFPQKLKFREPQREERICLVTTNFQTKSMSSMVSDTSCTFPSGDGIFWKHWIQTKDGQCGSPLVSTRDGFIVGIHSASNFTNTNNYFTSVPKNFMELLTNQEAQQWVSGWRLNADSVLWGGHKVFMVKPEEPFQPVKEATQL

Variants of: B1
Assay: raw area under fraction-flipped curve 0-4 h after induction (AUC4h, not background-subtracted), DNA-recorder readout of cleavage of the substrate (dimensionless); higher = more cleavage of the substrate by the protease variant
Settings: temperature: 34 °C; time window: 0-4 h after rhamnose induction
Description: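 In vivo DNA recorder in E. coli TOP10(DE3) ΔrhaA at 34 °C. Each TEVp single-site mutant (parent TEVp 0) is paired with a single-site variant of the 7-mer TEVs (canonical ENLYFQ|S). The substrate sits between flexible linkers in a Bxb1-sfGFP-TEVs-SsrA fusion, so cleavage stabilises Bxb1 and speeds flipping of a recombination array, read by NGS. The value is the raw area under the fraction-flipped curve over 0-4 h after rhamnose induction (AUC4h), with ≥20 reads per time point. It is not background-subtracted; inactive controls average about 0.047.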
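Further: Bxb1 expression induced with 0.2% (w/v) L-rhamnose at OD600 near 0.5, cultures sampled hourly, flipped fraction per protease–substrate barcode pair counted by paired-end Illumina sequencing.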

Row | Variant | area with substrate ENLYFAS | area with substrate ENLYFDS | area with substrate ENLYFES | area with substrate ENLYFGS | area with substrate ENLYFIS | area with substrate ENLYFKS | area with substrate ENLYFLS | area with substrate ENLYFMS | area with substrate ENLYFNS | area with substrate ENLYFPS | area with substrate ENLYFRS | area with substrate ENLYFTS | area with substrate ENLYFVS | area with substrate ENLYFWS | area with substrate ENLYFYS | area with substrate ENLYFFS | area with substrate ENLYFHS | area with substrate ENLYFCS | area with substrate ENLYFSS
1 | A196S | 0.0684 | 0.0549 | 0.0607 | 0.053 | 0.0461 | 0.0412 | 0.0638 | 0.0492 | 0.066 | 0.06 | 0.059 | 0.059 | 0.0573 | 0.0488 | 0.0591 | – | – | – | –
2 | F180M | 0.0624 | 0.0551 | – | 0.0475 | 0.065 | – | – | 0.0624 | – | 0.0599 | 0.0741 | – | 0.057 | 0.0663 | 0.0664 | 0.0587 | 0.0574 | – | –
3 | E223W | 0.0597 | 0.0646 | 0.0469 | 0.0506 | 0.0544 | 0.0689 | 0.0543 | 0.0597 | 0.0648 | 0.059 | 0.0424 | 0.0535 | 0.053 | 0.0878 | 0.0583 | 0.0743 | – | 0.0583 | –
4 | L156T | 0.0619 | 0.0666 | 0.0682 | 0.0618 | 0.062 | 0.0618 | 0.0567 | 0.0671 | 0.0574 | 0.0593 | 0.053 | 0.0557 | 0.0605 | 0.0541 | 0.0522 | 0.0641 | 0.0521 | 0.061 | 0.0585
5 | N177D | 0.0584 | 0.0543 | 0.0679 | 0.0736 | 0.0685 | – | – | 0.0697 | 0.0875 | 0.0661 | 0.0659 | 0.0578 | 0.0585 | 0.0675 | 0.0559 | 0.0674 | 0.0576 | – | 0.058
6 | S17I | 0.0628 | 0.0644 | – | 0.0588 | 0.0532 | 0.0806 | 0.063 | 0.0586 | – | 0.0611 | 0.0375 | 0.0509 | – | – | 0.0476 | 0.0646 | 0.057 | – | –
7 | E231F | 0.0573 | – | 0.0699 | – | 0.0639 | 0.0661 | 0.0503 | 0.0554 | 0.0723 | 0.056 | – | – | – | – | – | 0.0643 | 0.0606 | – | –
8 | Q234Y | 0.0581 | – | 0.0602 | – | 0.0595 | 0.0576 | – | 0.0705 | 0.071 | 0.0545 | 0.0572 | 0.064 | 0.0543 | – | 0.0538 | 0.0695 | – | – | 0.0542
9 | F6D | 0.0646 | 0.0582 | 0.0703 | – | 0.0749 | – | 0.0605 | 0.0512 | 0.0699 | 0.0613 | 0.0513 | 0.0566 | 0.0568 | – | 0.063 | 0.0685 | – | – | 0.068
10 | V58N | 0.0482 | – | 0.039 | – | 0.037 | – | – | 0.0618 | 0.0666 | 0.0454 | – | 0.0625 | 0.0616 | – | 0.0467 | 0.0559 | – | 0.0488 | –
11 | S127C | 0.0511 | 0.0687 | 0.066 | 0.0448 | 0.0598 | – | 0.0638 | 0.0612 | 0.0625 | 0.0542 | – | 0.0505 | 0.0671 | 0.0591 | – | 0.0768 | 0.0585 | 0.0558 | 0.0568
12 | F117Q | 0.0495 | – | 0.0587 | – | 0.0589 | 0.059 | 0.0565 | 0.0788 | 0.0682 | 0.0587 | 0.0435 | – | 0.0535 | 0.055 | 0.0638 | 0.0288 | – | – | 0.0596
13 | D11C | 0.0425 | 0.0679 | 0.0618 | 0.0659 | 0.0561 | 0.0587 | 0.0611 | 0.0772 | 0.0465 | 0.0544 | 0.0777 | 0.0562 | 0.0534 | – | 0.0551 | 0.0757 | – | 0.0502 | 0.0671
14 | H47Q | 0.0715 | – | 0.0638 | – | 0.0587 | 0.0693 | – | 0.064 | – | 0.064 | 0.0666 | 0.062 | 0.0585 | 0.0615 | 0.0674 | 0.0684 | – | 0.0547 | 0.0554
15 | G162W | 0.0732 | 0.0467 | 0.0337 | – | 0.0532 | – | – | 0.0794 | – | 0.0607 | – | 0.0414 | 0.0519 | – | 0.0601 | 0.0564 | – | – | –
16 | V58H | 0.0459 | – | – | – | 0.0473 | 0.0534 | – | 0.0615 | – | – | – | – | – | – | 0.0613 | – | – | – | –
17 | S26Y | 0.0655 | 0.0735 | 0.0604 | 0.0663 | 0.0629 | 0.0685 | – | 0.0618 | 0.0565 | 0.0679 | 0.0608 | 0.0566 | 0.131 | 0.0558 | – | 0.0675 | – | 0.0621 | –
18 | E25F | 0.0636 | 0.0315 | 0.0843 | – | 0.0428 | 0.06 | 0.069 | – | 0.0646 | 0.0538 | – | 0.0586 | 0.0413 | – | 0.0723 | 0.0586 | 0.0486 | 0.0507 | 0.0571
19 | R87I | 0.0667 | 0.0613 | 0.054 | – | 0.057 | 0.0617 | – | 0.0712 | – | 0.0513 | 0.046 | 0.0402 | 0.0708 | – | – | 0.0995 | 0.0524 | – | 0.0504
20 | D161I | 0.0427 | 0.056 | – | 0.0309 | 0.0543 | – | 0.0666 | 0.0501 | 0.0446 | 0.0562 | 0.0557 | – | – | – | 0.0824 | 0.0627 | – | – | 0.0392
21 | S4Q | 0.0772 | – | 0.0588 | 0.0596 | 0.0614 | 0.0435 | 0.0605 | – | 0.0569 | 0.0573 | 0.0629 | 0.0646 | 0.0682 | 0.0398 | 0.0538 | 0.0702 | 0.0475 | 0.0612 | 0.049
22 | F101L | 0.041 | – | 0.0497 | – | 0.0594 | – | – | 0.0667 | 0.0663 | 0.0638 | – | 0.0759 | – | 0.0488 | 0.0992 | 0.0643 | 0.0209 | – | 0.0501
23 | R204S | 0.0544 | – | – | – | 0.0565 | 0.0493 | – | 0.0675 | 0.0646 | 0.0571 | 0.0619 | 0.073 | 0.0626 | 0.059 | 0.0756 | 0.0654 | 0.0687 | 0.065 | –
24 | I139C | 0.0517 | – | 0.0694 | 0.0891 | 0.0621 | 0.0626 | – | 0.0684 | – | 0.0341 | 0.0608 | 0.048 | 0.0573 | – | – | 0.0748 | 0.0903 | – | 0.0614
25 | I86S | 0.0469 | 0.0473 | 0.0641 | – | 0.0447 | 0.0556 | – | 0.0493 | 0.045 | 0.0574 | 0.0445 | 0.0413 | 0.0536 | 0.052 | – | 0.0684 | 0.058 | 0.0497 | –
